Source: US20250297030A1 (SHANDONG SIMCERE BIOPHARMACEUTICAL, published 2025)

T1: Cyno MUC17 ECD3577-his (His-tagged cynomolgus monkey MUC17 protein extracellular domain fusion protein) (cynomolgus monkey)
T1 construct: also called monkey MUC17-his protein; monkey MUC17 ECD3577-His
T1 chain: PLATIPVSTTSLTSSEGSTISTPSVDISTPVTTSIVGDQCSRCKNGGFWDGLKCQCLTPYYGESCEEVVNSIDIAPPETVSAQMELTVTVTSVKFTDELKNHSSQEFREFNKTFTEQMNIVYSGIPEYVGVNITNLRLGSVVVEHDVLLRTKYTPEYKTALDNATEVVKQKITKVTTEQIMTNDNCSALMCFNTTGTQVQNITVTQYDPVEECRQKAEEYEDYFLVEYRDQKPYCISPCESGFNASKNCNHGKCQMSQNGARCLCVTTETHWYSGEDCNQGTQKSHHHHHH


How the values were obtained:
[1] = target: T1, Cyno MUC17 ECD3577-his (His-tagged …); assay: ELISA on coated monkey MUC17 ECD3577-His, OD450
Procedure: To assay the binding activity of the humanized antibodies with the monkey MUC17-his protein, the monkey MUC17-his protein was diluted with PBS to a final concentration of […] and subjected to ELISA assay and data analysis according to the method described in Example 3.3. The humanized antibodies SCR-7724, SCR-7782, SCR-7783, SCR-7784, and SCR-7785 have cross-binding activity with the monkey MUC17 protein, maintaining the binding ability of the recombinant antibody.

[2] = target: T2, Human MUC17 ECD4131-his (His-tagged human MUC17 protein extracellular domain fusion protein) (human, UniProt Q685J3 part only); assay: ELISA on coated human MUC17 ECD4131-his, OD450
T2 construct: a truncation of the extracellular domain; also called human MUC17-his protein; human MUC17-His
Procedure: A human MUC17-his protein was diluted with PBS to a final concentration of […] and then added to a 96-well ELISA plate at 50 µL/well. The plate was incubated at 4° C. overnight. The next day, the plate was washed 2 times with PBST, and a blocking buffer [PBS+2% (w/w) BSA] was added for blocking at room temperature for 2 h. The blocking buffer was discarded, and the recombinant antibody and positive and negative control antibody with a starting concentration of 100 nM serially diluted by 3 folds were added at 50 μL/well. After incubation at 37° C. for 1 h, the plate was washed 3 times with PBST. A horseradish peroxidase (HRP)-labeled secondary antibody (purchased from Merck, Cat. No. AP113P) was added for incubation at 37° C. for 1 h, and the plate was washed 5 times with PBST. A TMB substrate was added at 50 μL/well for incubation at room temperature for 10 min, and then a stop solution (1.0 M HCl) was added at 50 µL/well. The OD₄₅₀ nm values were read by an ELISA plate reader (Multimode Plate Reader, EnSight, purchased from Perkin Elmer).

[3] = target: T2, Human MUC17 ECD4131-his (His-tagged …); assay: SPR (Biacore 8K), antibody captured on Protein A
Procedure: The strength of antibody-antigen binding was assayed with a BIAcore 8K instrument using an Protein A capture method. First, Protein A was immobilized onto a CM4 chip (purchased from GE, BR-1005-34) using an amino coupling method. According to the instruction of the Amine Coupling Kit (purchased from GE, BR100633), NHS and EDC were mixed with HBS-EP+ pH 7.4 as a mobile phase to activate the chip for about 600 s; the Protein A was diluted to 50 µg/mL with 10 mM sodium acetate (pH 4.5) and injected for 600 s, and finally, the remaining activated sites were blocked with ethanolamine. Then, the affinity of the antibody for the antigen was assayed using a multi-cycle kinetic method; in each cycle, first, the antibody to be tested was captured using the Protein A chip, and then a single concentration of antigen protein was injected. The association and dissociation processes of the antibody with the antigen protein were recorded, and finally, the chip was regenerated using Glycine pH 1.5, wherein the mobile phase was HBS-EP+ (10 mM HEPES, 150 mM NaCl, 3 mM EDTA, 0.05% surfactant P20), the flow rate was […], the regeneration time was 30 s, and the assay temperature was 25° C. Finally, according to a 1:1 binding model, the data were analyzed, and the antibody-antigen binding kinetics parameters, including the association rate constant Ka, the dissociation rate constant Kd, the equilibrium dissociation constant KD, and the maximum binding signal Rmax, were fitted. The association rate (Ka), dissociation rate (Kd), and binding affinity (KD) of the recombinant antibodies Lab315-huFc, Lab316-huFc, Lab320-huFc, Lab331-huFc, and Lab332-huFc with the human MUC17 protein are shown in Table 5.
After the finally obtained various humanized antibodies were expressed and purified, the affinity of the humanized antibodies for the human MUC17 protein was assayed according to the method in Example 3.6.

T2 sequence (Q685J3 other isoform, or with tags, fused parts or gaps): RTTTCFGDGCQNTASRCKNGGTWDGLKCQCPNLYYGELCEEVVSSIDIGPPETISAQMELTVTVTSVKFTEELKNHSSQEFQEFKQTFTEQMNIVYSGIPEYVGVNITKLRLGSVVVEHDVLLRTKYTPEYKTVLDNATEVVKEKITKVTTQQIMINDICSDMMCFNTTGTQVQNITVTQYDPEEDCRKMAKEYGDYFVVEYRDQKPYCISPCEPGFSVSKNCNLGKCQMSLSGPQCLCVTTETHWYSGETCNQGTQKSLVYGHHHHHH

Row | Binder | EC50 (read off the curve) [1] [nM] | EC50 (read off the curve) [2] [nM] | Kd [3] [nM] | koff [3] [s⁻¹] | kon [3] [M⁻¹ s⁻¹]
1 | SCR-7784-001-H1-hFc (Fc fusion, VHH-huFc (C220S) order with human hinge and Fc; also called SCR-7784 humanized antibody) EVQLVESGGGVVQPGGSLRLSCAASGYTSNRYSMAWFRQAPGKEREVVAFIWTDGGRTYYADSVKGRFTISRDNSKNTLYLQMNSLRAEDTAVYYCAASSLLLQTINPRAWPYWGQGTMVTVSS[omitted - human IgG1 Fc with C220S (EU numbers)] | ~0.05 | ~0.08 | 0.0755 | 2.27e-05 | 301000
2 | SCR-7784-001-H2-hFc (Fc fusion, VHH-huFc (C220S) order with human hinge and Fc; also called SCR-7784 humanized antibody) EVQLVESGGGVVQPGGSLRLSCAASGYTSNRYSMAWFRQAPGKEREVVAFIWTDGGRTYYADSVKGRFTISHDNSKNTLYLQMNSLRAEDTAVYYCAASSLLLQTINPRAWPYWGQGTMVTVSS[omitted - human IgG1 Fc with C220S (EU numbers)] | ~0.05 | ~0.08 | 0.0753 | 2.77e-05 | 368000
3 | SCR-7784-001-H3-hFc (Fc fusion, VHH-huFc (C220S) order with human hinge and Fc; also called SCR-7784 humanized antibody) DVQLVESGGGVVQPGGSLRLSCAASGYTSNRYSMAWFRQAPGKEREVVAFIWTDGGRTYYADSVKGRFTISHDNSKNTLYLQMNSLRAEDTAVYYCAASSLLLQTINPRAWPYWGQGTMVTVSS[omitted - human IgG1 Fc with C220S (EU numbers)] | ~0.05 | ~0.08 | 0.073 | 2.69e-05 | 369000
4 | SCR-7784-001-H4-hFc (Fc fusion, VHH-huFc (C220S) order with human hinge and Fc; also called SCR-7784 humanized antibody) DVQLVESGGGVVQPGGSLRLSCAASGYTSNRYSMAWFRQAPGKEREVVAFIWTDGGRTYYADSVKGRFTISHDNAKNTLYLQMNSLRAEDTAVYYCAASSLLLQTINPRAWPYWGQGTMVTVSS[omitted - human IgG1 Fc with C220S (EU numbers)] | ~0.05 | ~0.08 | 0.0722 | 2.69e-05 | 372000
5 | SCR-7784-001-H5-hFc (Fc fusion, VHH-huFc (C220S) order with human hinge and Fc; also called SCR-7784 humanized antibody) DVQLVESGGGVVQPGGSLRLSCAASGYTSNRYSMAWFRQAPGKEREVVAFIWTDGGRTYYADSVKGRLTISHDNAKNTLYLQMNSLRAEDTAVYYCAASSLLLQTINPRAWPYWGQGTMVTVSS[omitted - human IgG1 Fc with C220S (EU numbers)] | ~0.05 | ~0.08 | 0.1 | 3.93e-05 | 392000
6 | SCR-7784-001-H6-hFc (Fc fusion, VHH-huFc (C220S) order with human hinge and Fc; also called SCR-7784 humanized antibody) DVQLQASGGGVVQPGGSLRLSCAASGYTSNRYSMAWFRQAPGKEREVVAFIWTDGGRTYYADSVKGRFTISHDNSKNTLYLQMNSLRAEDTAVYYCAASSLLLQTINPRAWPYWGQGTMVTVSS[omitted - human IgG1 Fc with C220S (EU numbers)] | ~0.05 | ~0.08 | 0.104 | 3.24e-05 | 313000
7 | SCR-7784-001-H7-hFc (Fc fusion, VHH-huFc (C220S) order with human hinge and Fc; also called SCR-7784 humanized antibody) DVQLVESGGGVVQPGGSLRLSCAASGYTSNRYSMAWFRQAPGKEREVVAFIWTDGGRTYYADSVKGRFTISHDNSKNTLYLQMNSLRAEDTAMYYCAASSLLLQTINPRAWPYWGQGTQVTVSS[omitted - human IgG1 Fc with C220S (EU numbers)] | ~0.05 | ~0.08 | 0.0831 | 3.05e-05 | 367000
